Results taken from patent US20260193370A1 (SUZHOU SUNCADIA BIOPHARMACEUTICALS, published 2026).

Key:
[1] = target: human NGF protein (Sino biological, 11050-HNAC) (human, UniProt P01138 partial chain); assay: cell-based or functional assay
[2] = target: T1, human RANKL protein (Sino Biological, 11682-HNCH) (human, UniProt O14788 136-317, limits assumed); assay: SPR (Biacore), antibody captured on Protein A chip
T1 construct: Bought recombinant protein
T1 sequence (looked up): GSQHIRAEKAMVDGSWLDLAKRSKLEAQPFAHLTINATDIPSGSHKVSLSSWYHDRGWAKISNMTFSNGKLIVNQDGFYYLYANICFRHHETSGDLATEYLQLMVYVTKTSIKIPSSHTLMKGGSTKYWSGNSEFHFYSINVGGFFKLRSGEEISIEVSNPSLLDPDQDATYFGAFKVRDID
Procedure: Reaction signals were detected in real time by using Biacore, and binding and dissociation curves were obtained. After dissociation was complete in each cycle, the biochip was washed and regenerated with a glycine-hydrochloric acid regeneration solution (GE, BR-1003-54) having a pH of 1.5. Fitting was performed on the experimental data using BIAevaluation version 4.1 software with a 1:1 model, and affinity values were obtained.

[3] = target: T1, human RANKL protein (Sino Biological, …); assay: cell-based or functional assay
[4] = target: T1, human RANKL protein (Sino Biological, …); assay: cell-based or functional assay; remark: listed apart in the source

Sequence of UniProt P01138 (P01138 122-241 limits assumed): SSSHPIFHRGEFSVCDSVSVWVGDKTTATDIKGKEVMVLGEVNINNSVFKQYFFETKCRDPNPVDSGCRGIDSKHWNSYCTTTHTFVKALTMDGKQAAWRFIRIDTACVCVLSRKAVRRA

B1: Bispecific antibody 1 (bispecific antibody, human IgG4 S228P, kappa)
heavy: EVQLLESGGGLVQPGGSLRLSCAASGFTFSSYAMSWVRQAPGKGLEWVSGITGSGGSTYYADSVKGRFTISRDNSKNTLYLQMNSLRAEDTAVYYCVKDPGTTSIMSWFDPWGQGTLVTVSSASTKGPQVQLQESGPGLVKPSETLSLTCTVSGFSLIGYDLNWIRQPPGKGLEWIGIIWGDGTTDYNSAVKSRVTISKDTSKNQFSLKLSSVTAADTAVYYCARGGYWYATSYYFDYWGQGTLVTVSSASTKGPSVFPLAPCSRSTSESTAALGCLVKDYFPEPVTVSWNSGALTSGVHTFPAVLQSSGLYSLSSVVTVPSSSLGTKTYTCNVDHKPSNTKVDKRV[human IgG4 Fc with S228P (EU numbers) not spelt out]
light: EIVLTQSPGTLSLSPGERATLSCRASQSVRGRYLAWYQQKPGQAPRLLIYGASSRATGIPDRFSGSGSGTDFTLTISRLEPEDFAVFYCQQYGSSPRTFGQGTKVEIKTVAAPDIQMTQSPSSLSASVGDRVTITCRASQSISNNLNWYQQKPGKAPKLLIYYTSRFHSGVPSRFSGSGSGTDFTFTISSLQPEDIATYYCQQEHTLPYTFGQGTKLEIKRTVAAPSVFIFPPSDEQLKSGTASVVCLLNNFYPREAKVQWKVDNALQSGNSQESVTEQDSKDSTYSLSSTLTLSKADYEKHKVYACEVTHQGLSSPVTKSFNRGEC
notes: DVD-IgG format; First chain: anti-RANKL VH, linker ASTKGP, anti-NGF VH, IgG4 constant region; Second chain: anti-RANKL VL, linker TVAAP, anti-NGF VL, kappa constant region; also called anti-RANKL-NGF bispecific antibody; RANKL-NGF bispecific antibody
TF-1 cell proliferation-inhibiting activity, IC50 (TF-1 cells with human NGF, Cell-titer Glo) [1]: 3.16 nM | fold affinity relative to denosumab [2]: 3.8 fold | Osteoclast differentiation-inhibiting activity, fold relative to denosumab [3]: > 3.3 fold | Osteoclast differentiation-inhibiting activity, IC50 (Raw264.7 cells with human RANKL, TRAP assay) [4]: 1.19 nM
